Laboratory results published in the supplement of paper PMC10126150.
Sequences with one replicate were seen in a single cluster, so their values are uncertain.

System: ATP
Experiment: switch fluorescence ratio, 500 uM ATP over buffer (Cy3 cluster intensity, sum of 5 cycles each) (fold (ratio)); higher = stronger signal-on switching upon ATP binding; sequences stand for … in TCGTCGGCAGCGTCAGATGTGTATAAGAGACAGTTTTTTTTTTTTTTTTTTTTTTTTT…TC
Conditions: aptamer strand: ATP DNA aptamer (quencher-CACCTGGGGGAGTATTGCGGAGGAAGG + anchor), 100 nM annealed; ATP concentration: 500 uM; one replicate
Method in brief: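 Per cluster, summed Cy3 intensity from the target cycles was divided by that from the buffer cycles to give the fluorescence ratio, then averaged per switch-domain sequence. Clusters outside 100-1000 RFU were excluded. The Cy3-labelled switching-strand clusters, on a modified Illumina MiSeq flow-cell, were annealed to 100 nM quencher-labelled ATP aptamer and imaged in selection buffer, then after 15 min with 500 uM ATP at 22 °C, for five cycles with NaOH stripping and re-annealing between them.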
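Further: ATP exposure 15 min at 22 °C before imaging.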

Row | Sequence | switch fluorescence ratio
1 | AGGCGCGAGG | 1.02
2 | GCTCATATAC | 3.04
3 | ACCCCGTGTC | 1.16
4 | GCTGTGGCTA | 0.979
5 | GACGAAACT | 1.1
6 | GAAGGGAGAT | 0.952
7 | CTGTACGTGG | 1.03
8 | TGCGAAGTAC | 1.57
9 | ACGTTGGTAC | 1.22
10 | GATGGGAGCA | 0.966
11 | AACCTACTTG | 1.11
12 | GCGCAAGAA | 1.2
13 | CATGTCATCA | 1.01
14 | ATATGTATTC | 0.974
15 | TTTATTTGT | 0.989
16 | TAGCCCGGA | 1.01
17 | CGGCCAACTG | 0.992
18 | AAAAACTCGA | 1.01
19 | ACGTGCTCAA | 1.11
20 | GTCACAGTGG | 0.988
21 | TTTTATTCAT | 1.02
22 | TTTGTTCCGA | 1.03
23 | ATCGCCTGAG | 1.08

Row | Sequence | switch fluorescence ratio
24 | GTTTGATAG | 1.02
25 | TAACTCTCCT | 1.02
26 | CAGTGGAGGG | 1.03
27 | TCCATACTGT | 1.05
28 | CAGGAGGGTG | 1.06
29 | GCCACCGCCG | 1.18
30 | TATTAACCCG | 1.05
31 | AAGATATGGG | 1.01
32 | ACGATCTCTT | 0.951
33 | CAAAGGGT | 1.01
34 | ATGAAACAGG | 1.05
35 | TCGAGTTAGT | 1.01
36 | TGGCCACTCT | 0.997
37 | TCAGGTGCAG | 1.09
38 | TCGGCACCA | 1.01
39 | TGGTCTACAG | 0.999
40 | AGGTGAAGGA | 1.01
41 | GGCGTTTGAG | 0.949
42 | GCGCAAAAAC | 1.28
43 | CAAGTTCGTA | 0.979
44 | TCAAATCTAT | 0.977
45 | GGCCAGGAAC | 1.02
46 | AAAGCCTCGC | 0.996

Row | Sequence | switch fluorescence ratio
47 | CTAGTGCCCC | 1.13
48 | ACCTCGAGAG | 1.03
49 | CAGTGGAGAG | 1
50 | AACGTGGTTA | 1
51 | CTGACGCCGG | 1.22
52 | ACGCAGCACC | 4.78
53 | AGGTGGGCAC | 1.05
54 | GGTTAGTCGG | 1.01
55 | ATAAAGCTGG | 1.04
56 | CACCGAGGAT | 0.999
57 | AATTCCGAAA | 1.35
58 | GCTCAGGTGG | 1.07
59 | CGCGTGCCGT | 1.09
60 | TTTAAACTTG | 1.04
61 | ACATAAAAAG | 1.07
62 | CTGCAAAGTC | 2.27
63 | TGGTTAGTG | 0.985
64 | CACCCTGTCG | 1.05
65 | CACATTATCC | 1.13
66 | TGCTGAAG | 1.03
67 | CGGCACCAGC | 1.02
68 | GACGATTTTG | 0.96
69 | AATTATATTA | 1.01

Row | Sequence | switch fluorescence ratio
70 | TCTGGCTGTT | 0.973
71 | CTCCCCGCGG | 2.2
72 | CATCTTGATG | 0.977
73 | GGCTGGTTCT | 0.988
74 | GAATCCGCCT | 1.21
75 | TACTGTTCGT | 1.01
76 | CAAACGACGG | 1
77 | ACCATTAAGC | 1.08
78 | TACAGATGAT | 0.982
79 | ATATCCGAGG | 1.05
80 | CGAAGGCAAA | 2.16
81 | TAAAAGGCCG | 0.973
82 | TCAACCTTAG | 1.02
83 | GGTTCTGCGC | 0.969
84 | GTCTTGCG | 0.93
85 | TGTGTCCGTT | 1.01
86 | CTTAGGTACG | 1.01
87 | TCGATCTTA | 1.03
88 | TGTGCGGGGC | 1.26
89 | CGAGTGACTC | 1.01
90 | AAATCATTCT | 1.01
91 | AGACCCGAAA | 1.04
92 | TTGGAATAAC | 1.05

Row | Sequence | switch fluorescence ratio
93 | CGCGGGGTTT | 0.986
94 | AAGTAGTACT | 1.04
95 | AAGACAACCT | 2.13
96 | CGGGGCCTCG | 0.993
97 | GAAAGAGTAA | 0.995
98 | TGCTTTGCC | 1.07
99 | TTGGTCGA | 0.989
100 | ATGGCGCAG | 0.923
101 | AAAACTTTT | 0.95
102 | CCTTCATGCA | 1.99
103 | GGGATTAGTG | 1
104 | ATGAATGCTG | 0.993
105 | TCAGCCCATA | 1.02
106 | ACTAATGGGT | 1.03
107 | ATTAGGAAGC | 1.01
108 | ACTGTAGTA | 1.08
109 | TTGTACCATG | 1.01
110 | AACGACAGAG | 1.02
111 | ATAACGGACA | 1.31
112 | AATCGGAATG | 0.967
113 | CGGCCGGATA | 1.01
114 | ACGCGGAATC | 1.02
115 | TCGTAGAGTC | 0.981

Row | Sequence | switch fluorescence ratio
116 | CGCATACTAG | 4.42
117 | TAGTTCGAAG | 1.13
118 | GAGCCCGCGA | 1.08
119 | AGGGGAGCCG | 0.959
120 | GAAACCTAAC | 1.36
121 | TGTCCGATGC | 1.72
122 | TTCGCGTCCG | 1.03
123 | AAGAGTGTTT | 1.03
124 | ATCTCTGCCT | 1.07
125 | CAGCGGGAGC | 0.957
126 | AACGAGGTCT | 1.03
127 | ACGTGGGTAA | 1.01
128 | GGGGCCATAG | 1.01
129 | TGAAAGGTGT | 0.962
130 | CGAATAGCTC | 1.11
131 | CATGGCCTGT | 1
132 | TAGATCGGTC | 1
133 | GTCAGGTATA | 0.981
134 | TATCACGTAC | 1.62
135 | CCATCATACC | 1.08
136 | AACCGAAGGT | 1.02
137 | TGATGCCATT | 1.01
138 | GATGTGAGAA | 1.02

Row | Sequence | switch fluorescence ratio
139 | AACGTAGCTA | 1.63
140 | CAATGATTGC | 1.02
141 | TGGAAACGGG | 1
142 | CTATAAATG | 1
143 | CACCGTCTTC | 1.05
144 | ACTGGAGTAA | 0.892
145 | TACGTTCGGC | 1.04
146 | CCATATCGAT | 1.04
147 | TTGAGTGCAG | 1
148 | AATGAACTGT | 1
149 | TCTGTTTGT | 1.03
150 | CAGGTTGAAA | 0.982
151 | CGGGGTCGGG | 1.03
152 | GGATTGAAAA | 1.03
153 | AACGAGTTTC | 1.01
154 | AGGATTATG | 0.987
155 | TTTCGCAC | 2.08
156 | TTCTTCGAGT | 0.971
157 | ACTGAACGCC | 1.39
158 | GGATCTTTTG | 1.02
